{"source": "paper PMC4575918", "about": "“Regulation of p53 oligomerization by Ras superfamily protein RBEL1A” (Genes & Cancer, 2015)", "proteins": {"B1": {"name": "C-terminus of p53 corresponding to […] (His-tagged copy and Myc-tagged copy) (domain or fragment)", "chain": "not shown", "notes": "Two separate constructs with the same limits: one copy has only the His-tag, the other only the Myc-tag; no chain has both; source: HEK293T, transfected, in lysate; not shown: His-tag, C-terminal, kept; Myc-tag, C-terminal, kept"}}, "target": "the molecule itself", "assay": "cross-linking; in-cell p53 oligomerization assay: lysates of transfected, knock-down or UV-exposed cells (HEK293T, MCF12A, MCF7; MG132 before harvest) cross-linked with glutaraldehyde 0.005%; SDS gel, anti-p53 (FL393) or anti-myc blot", "data": [{"protein": "B1", "values": [{"measurement": "stoichiometry N", "result": 4}]}]}
